Reference: the supplement of paper PMC9334596
Where “and” joins values, the source holds several entries; their conditions need not be identical. Identical values can stand only once. The full ranking holds about 5,300 compounds; the median of “PER2::LUC luminescence relative to vehicle control” is about 0.96, and the highest 2% start at about 1.3. This is one part of the list.

System: mPer2Luc MEF
Assay: PER2::LUC luminescence relative to vehicle control (fold of vehicle); higher = higher PER2::LUC reporter signal
Details: 10 µM
Outline: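 The reported values are PER2::LUC luminescence as fold of vehicle control in mouse embryonic fibroblasts carrying the mPer2Luc reporter. Cells were seeded at ~3000 per well in 384-well plates in DMEM with 10% FBS at 37 °C and 5% CO2, and compounds were added at 10 μM 48 h later. ONE-Glo luminescence was read 24 h and 30 h after treatment.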

SMILES | PER2::LUC luminescence (time after treatment 24 h) | PER2::LUC luminescence (time after treatment 30 h)
COc1ccc2[nH]c(-c3ccccc3)c(CCNC(C)=O)c2c1 | 0.762 | 0.89
CC(C)(C)c1ccc(C(=O)CCCN2CCC(OC(c3ccccc3)c3ccccc3)CC2)cc1 | 1.01 | 1.03
O=c1ccn([C@@H]2O[C@H](CO)[C@@H](O)[C@H]2O)c(=O)[nH]1 | 0.979 | 1.03
COc1cccc2cc(-c3nc([C@H]4CC[C@H](C(=O)O)CC4)n4ncnc(N)c34)[nH]c12 | 0.517 | 0.54
Oc1cccc2[nH]ccc12 | 0.989 | 1
CC(C)C[C@H](N)C(=O)N[C@@H](C)C(=O)O | 1.01 | 0.99
C[C@@H](c1nc(-c2ccc(C#N)cc2)cs1)[C@](O)(Cn1cncn1)c1cc(F)ccc1F | 0.999 | 0.999
CC(=O)CCCCn1cnc2c1c(=O)n(C)c(=O)n2C | 0.931 | 0.944
Cn1ccnc1 | 1.06 | 1.02
CCN(CC)CCOC(=O)c1ccc(N)cc1 | 1.07 and 0.897 | 1.58 and 0.928
CCOC(=O)c1c(C)cc(O)c(C=O)c1O | 0.921 | 0.928
COc1ccc(-c2coc3c4c(c(CC=C(C)C)c(O)c3c2=O)OC(C)(C)C=C4)cc1 | 0.893 | 0.894
Cc1c(C)c2c(c(C)c1O)CCC(C)(C(=O)O)O2 (stereo not given) | 1.08 | 1.22
Clc1ccc(C(Cn2ccnc2)OCc2ccc(Sc3ccccc3)cc2)c(Cl)c1 (stereo not given) | 0.905 | 1.06
CC[C@H](C)C(=O)O[C@H]1C[C@@H](C)C=C2C=C[C@H](C)[C@H](CC[C@@H]3C[C@@H](O)CC(=O)O3)[C@H]21 | 0.614 | 0.507
NC1CCN(O)C1=O (racemic) | 1.06 | 0.968
COc1cccc(-c2cc(=O)c3cc(OC)ccc3o2)c1 | 1.22 | 1.49
CCN(CC)C(=O)C(c1ccccc1)N1CCN(c2ccc(NC(=O)c3ccccc3-c3cccnc3)cc2F)CC1 (stereo not given) | 0.968 | 1.09
CN(C)CCn1nnnc1SCC1=C(C(=O)O)N2C(=O)[C@@H](NC(=O)Cc3csc(N)n3)[C@H]2SC1 | 0.665 | 0.948
N[C@@H](CCCC(=O)O)C(=O)O | 1.1 | 0.958
O=c1cc(-c2ccccc2)oc2cc(O)c(O)c(O)c12 | 1.13 | 1.1
CC(C)CCCC(C)N (stereo not given) | 0.899 | 0.987
COc1cc(C2Oc3cc([C@H]4Oc5cc(O)cc(O)c5C(=O)[C@@H]4O)ccc3OC2CO)ccc1O (stereo not given in full) | 1.05 and 1.02 and 0.819 | 0.985 and 0.972 and 1.15

SMILES | PER2::LUC luminescence (time after treatment 24 h) | PER2::LUC luminescence (time after treatment 30 h)
O=c1[nH]c2cc(C(F)(F)F)ccc2n1-c1cc(C(F)(F)F)ccc1O | 1.02 | 1.22
CC(=O)N[C@@H](CS)C(=O)O | 1.04 and 0.979 | 0.991 and 1.2
N[C@@H](Cc1cc(I)c(Oc2ccc(O)cc2)c(I)c1)C(=O)O | 0.918 | 1.04
C[C@]1(c2nc3c(C(N)=O)cccc3[nH]2)CCCN1 | 1.08 and 0.967 and 1.16 | 1.01 and 0.999 and 1.18
N#C/C(=C\c1ccc(O)c(O)c1)C(=O)NCCc1ccccc1 | 0.619 | 1.06
O=c1cc(-c2ccccc2)[nH]c2nc(Cl)ccc12 | 0.918 | 0.918
O=C(O)Cc1cccc(OCCCN(Cc2cccc(C(F)(F)F)c2Cl)CC(c2ccccc2)c2ccccc2)c1 | 1.4 | 1.47
O=c1[nH]c(=O)c2nc3ccccc3nc2[nH]1 | 1.1 | 0.912
O=C1C(CC[S+]([O-])c2ccccc2)C(=O)N(c2ccccc2)N1c1ccccc1 (stereo not given) | 1 | 1.08
CCn1c(=O)c(-c2ccc(-c3cncs3)cc2Cl)cc2cnc(Nc3ccc(N4CCN(C)CC4)cc3)nc21 | 1.11 | 1.29
Clc1ccc2c(c1)N=C(N1CCNCC1)c1ccccc1N2 | 0.496 | 0.526
CC(=O)OC/C=C(C)/C=C/C=C(C)/C=C/C1=C(C)CCCC1(C)C | 0.964 | 0.832
CCCCC(=O)OCC(=O)[C@]1(O)Cc2c(O)c3c(c(O)c2[C@@H](O[C@H]2C[C@H](NC(=O)C(F)(F)F)[C@H](O)[C@H](C)O2)C1)C(=O)c1c(OC)cccc1C3=O | 0.904 | 0.561
NS(=O)(=O)c1cc2c(cc1Cl)N=C(CSCc1ccccc1)NS2(=O)=O | 1.05 | 1.03
OC[C@@H](O)[C@@H](O)CO | 1.01 | 0.956
CCC[C@H](N[C@@H](C)C(=O)N1[C@H](C(=O)O)C[C@@H]2CCCC[C@@H]21)C(=O)O | 0.996 | 0.98
CCCn1c(=O)c2[nH]c(-c3ccccc3)nc2n(CCC)c1=O | 0.925 | 0.976
O=C1NC(=O)/C(=C/c2ccc(-c3ccc(F)cc3O)o2)S1 | 0.691 | 1.18
NC1(c2ccc(-c3nc4ccn5c(=O)[nH]nc5c4cc3-c3ccccc3)cc2)CCC1 | 0.223 | 0.276
Cc1ccccc1/C=C/C1=NCCN1 | 0.856 | 0.889
CC[C@@]1(O)C(=O)OCc2c1cc1n(c2=O)Cc2cc3cc(O)ccc3nc2-1 | 0.836 | 0.79
CC[C@H](C)n1cc(C)c2c(C(=O)NCc3c(C)cc(C)[nH]c3=O)cc(-c3ccc(N4CCNCC4)nc3)cc21 | 0.703 | 0.74
